Data from publication PMC3585124.
Changes are numbered by the printed parent chain. Names may count otherwise. No constants are given. Whether binding was seen depends on the method and setting. In cells and extracts the contact can be indirect. Some results given as binding are weak or reduced against the parent protein; the word gives no strength. One block for each binder: values may come before it.

Sequences of proteins named here, by UniProt entry; tags and fusion partners are left off. A change or cut given only in a name is not applied to a line headed by its entry. A line that says so, or that is headed by a name, gives the form on record, which may keep a tag or linker.
Nbs1-(1–335)-K160M-GST (O60934, form named): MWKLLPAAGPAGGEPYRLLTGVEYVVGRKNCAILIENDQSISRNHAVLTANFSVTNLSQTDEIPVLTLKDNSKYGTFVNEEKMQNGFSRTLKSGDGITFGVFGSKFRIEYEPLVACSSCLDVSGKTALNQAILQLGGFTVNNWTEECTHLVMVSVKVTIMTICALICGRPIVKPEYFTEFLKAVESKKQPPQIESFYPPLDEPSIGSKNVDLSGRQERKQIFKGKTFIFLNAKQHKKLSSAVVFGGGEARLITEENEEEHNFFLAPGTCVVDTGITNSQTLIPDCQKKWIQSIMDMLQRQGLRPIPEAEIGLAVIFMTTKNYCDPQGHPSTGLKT
Nbs1-(1–335)-R28A-GST (O60934, form named): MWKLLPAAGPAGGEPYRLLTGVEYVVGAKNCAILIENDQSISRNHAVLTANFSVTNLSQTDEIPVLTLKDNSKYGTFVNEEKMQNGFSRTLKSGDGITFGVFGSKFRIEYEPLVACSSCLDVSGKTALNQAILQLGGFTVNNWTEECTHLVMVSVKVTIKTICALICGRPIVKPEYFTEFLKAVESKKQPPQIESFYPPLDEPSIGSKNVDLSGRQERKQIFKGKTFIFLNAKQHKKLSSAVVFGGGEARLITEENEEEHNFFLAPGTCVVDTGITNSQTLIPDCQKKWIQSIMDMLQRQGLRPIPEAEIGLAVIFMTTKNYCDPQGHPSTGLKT

What was measured:
[1] = molecular target: Nbs1-(1–335)-K160M-GST (human) (UniProt O60934); assay: pull-down; GST pull-down from Sf21 insect cells co-infected with baculoviruses for the GST-tagged partner (bait) and the Flag-tagged partner; NETN buffer; immunoblotting
[2] = molecular target: Nbs1-(1–335)-R28A-GST (human) (UniProt O60934); assay: as above

binding [1]: binds
B1: CtIP-(200–600)-T245A/T315A (domain or fragment, UniProt Q99708 200-600)
chain: ANEMRKVSKSSTHPQHNPNENEILVADTYDQSQSPMAKAHGTSSYAPDKSSFNLATVVAETLGLGVQEESETQGPMSPLGDELYHCLEGNHKKQPFEESTRNTEDSLRFSDSTSKAPPQEELPTRVSSPVFGATSSIKSGLDLNTSLSPSLLQPGKKKHLKTLPFSNTCISRLEKTRSKSEDSALFTHHSLGSEVNKIIIQSSNKQILINKNISESLGEQNRTEYGKDSNTDKHLEPLKSLGGRTSKRKKTEEESEHEVSCPQASFDKENAFPFPMDNQFSMNGDCVMDKPLDLSDRFSAIQRQEKSQGSETSKNKFRQVTLYEALKTIPKGFSSSRKASDGNCTLPKDSPGEPCSQECIILQPLNKCSPDNKPSLQIKEENAVFKIPLRPRESLETENVL

binding [2]: no binding
B2: CtIP-(200–600)-S233A/S276A/S347A (domain or fragment, UniProt Q99708 200-600)
chain: B1 chain with S34A, A46T, S77A, A116T, S148A
